# Reference: paper PMC4336329 (PLoS ONE, 2015)
# Screen size: about 310,000 compounds; about 2,200 (0.71%) showed an effect of 50% or more. Effects have a minus sign here. This is one part of the list.
# Target: human ether-à-go-go-related gene (hERG) potassium channel (human, UniProt Q12809)
# Experiment: primary screen, population patch clamp on CHO cells stably expressing hERG
# human ether-à-go-go-related gene (hERG) potassium channel, sequence (Q12809 whole entry, looked up): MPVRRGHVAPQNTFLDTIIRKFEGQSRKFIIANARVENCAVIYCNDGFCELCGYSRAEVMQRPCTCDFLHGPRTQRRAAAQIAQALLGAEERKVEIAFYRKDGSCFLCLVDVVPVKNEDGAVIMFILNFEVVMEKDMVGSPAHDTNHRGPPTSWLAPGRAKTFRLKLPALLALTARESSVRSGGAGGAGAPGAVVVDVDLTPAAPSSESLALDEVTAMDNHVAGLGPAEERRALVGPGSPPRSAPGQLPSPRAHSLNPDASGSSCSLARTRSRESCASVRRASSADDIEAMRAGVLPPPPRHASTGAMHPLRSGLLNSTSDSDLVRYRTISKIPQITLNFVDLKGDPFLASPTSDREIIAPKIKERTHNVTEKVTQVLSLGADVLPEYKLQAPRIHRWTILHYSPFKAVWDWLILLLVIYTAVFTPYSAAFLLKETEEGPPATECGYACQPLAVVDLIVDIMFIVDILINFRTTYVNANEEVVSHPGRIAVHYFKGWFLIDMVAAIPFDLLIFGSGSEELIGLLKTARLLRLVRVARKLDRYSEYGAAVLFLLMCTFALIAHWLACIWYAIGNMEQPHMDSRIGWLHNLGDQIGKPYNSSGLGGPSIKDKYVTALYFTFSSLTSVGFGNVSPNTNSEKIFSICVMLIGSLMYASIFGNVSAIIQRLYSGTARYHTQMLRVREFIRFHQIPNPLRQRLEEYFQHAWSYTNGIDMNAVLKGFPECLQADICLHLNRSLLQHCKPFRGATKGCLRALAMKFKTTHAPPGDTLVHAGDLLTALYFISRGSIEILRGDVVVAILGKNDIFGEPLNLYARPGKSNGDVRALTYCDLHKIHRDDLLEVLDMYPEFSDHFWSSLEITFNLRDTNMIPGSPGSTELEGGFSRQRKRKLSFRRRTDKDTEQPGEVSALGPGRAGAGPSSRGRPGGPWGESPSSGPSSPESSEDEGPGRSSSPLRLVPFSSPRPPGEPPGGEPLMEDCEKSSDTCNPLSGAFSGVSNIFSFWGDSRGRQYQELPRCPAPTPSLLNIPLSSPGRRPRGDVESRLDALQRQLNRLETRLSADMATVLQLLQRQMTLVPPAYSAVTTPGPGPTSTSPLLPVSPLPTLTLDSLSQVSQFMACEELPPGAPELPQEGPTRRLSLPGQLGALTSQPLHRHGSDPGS
row,Compound,"hERG current change (%, negative = inhibition) at 1uM [%]"
1,Cc1c(NC(=O)CN(c2ccc(F)cc2)S(=O)(=O)c2ccccc2)c(=O)n(-c2ccccc2)n1C,-3.12
2,NCCc1ccc(S(N)(=O)=O)cc1,12.1
3,COc1ccccc1Cn1c(=O)[nH]c2cccnc21,13.1
4,O=C(Nc1cccc(C(=O)O)c1)/C(=C\c1ccco1)NC(=O)c1ccccc1Cl,8.42
5,O=C(CCN1CCN(C(c2ccccc2)c2ccccc2)CC1)N/N=C/c1ccc(O)cc1O,-7.66
6,O=C(O)C1CCCCC1C(=O)NC1CCCCC1 (centres unmarked),12
7,O=C(Cc1ccc(F)cc1)Nc1nnc(SCC(=O)NC2CCCC2)s1,7.59
8,COc1ccc(C(CNC(=O)COc2ccccc2C)N2CCCC2)cc1 (centres unmarked),0.233
9,Cc1ccc(-c2[nH]c3ccccc3c2SCCNC(=O)c2ccc(S(=O)(=O)N3CCOCC3)cc2)cc1,15.3
10,Cc1ccc(NC(=O)CN2C(=O)S/C(=C\c3cc(C)n(-c4cccc(C(=O)O)c4)c3C)C2=O)cc1,13.3
11,Cc1nn(-c2ccc(F)cc2F)c(=O)c2noc(C)c12,13
12,CCN(C(=O)CCC(=O)N(CC)c1ccccc1)c1ccccc1,-3.95
13,COc1ccccc1NC(=O)C1CCCN1C(=O)NCc1ccccc1 (centres unmarked),10.1
14,Cc1ccc(S(=O)(=O)N(CC(=O)N2CCCCCC2)c2ccccc2F)cc1,11.9
15,Cn1cc(CN2CCCC(C(=O)c3ccc(-c4ccccc4)c(F)c3)C2)cn1 (centres unmarked),-2.23
16,NS(=O)(=O)c1ccc(CCNC(=O)CSc2nc3ccsc3c(=O)n2CCCCCC(=O)O)cc1,10.3
17,Cc1ccc(OCc2nc3ccccc3[nH]2)cc1,6.51
18,O=C(Nc1ccc(Cl)cc1C(F)(F)F)c1ccc(Cl)cc1,16.1
19,CC(C)OC(=O)c1cccc(-c2ccc(C=O)o2)c1,9.15

row,Compound,"hERG current change (%, negative = inhibition) at 1uM [%]"
1,O=C(Nc1nc2c(c(=O)[nH]1)CCCC2)C1CC1,14
2,O=S(=O)(Nc1ccc(-c2nc3cccnc3s2)cc1)c1cc(F)ccc1F,10.5
3,Cc1ccc(C(=O)N2CC(=O)NC(=O)C2)cc1,-4.74
4,Cc1cc(NC(=O)c2ccc3nc(-c4ccccc4)c(-c4ccccc4)nc3c2)no1,-4.26
5,COc1ccc(C(=O)NCc2nnc(SCC(=O)N3CCCCCC3)o2)cc1OC,16.4
6,CCN1C(=O)CC(N2CCN(CC(=O)NC(C)C)CC2)C1=O (centres unmarked),10.5
7,Cc1ccc2nc(/C(C#N)=C\c3cc(O)ccc3[N+](=O)[O-])[nH]c2c1,21.2
8,Cn1nnc2cc(C(=O)N3CCN(c4ccccn4)CC3)ccc21,13.7
9,NNC(=S)Nc1cccc(Cl)c1,5.01
10,O=C(COC(=O)c1cc2ccccc2oc1=O)Nc1cccc(S(=O)(=O)N2CCCCCC2)c1,13.3
11,O=C(COC(=O)CCN1C(=O)/C(=C\C=C\c2ccccc2)SC1=S)Nc1cc(F)ccc1F,8.36
12,O=C(CSc1ccc(-c2ccccc2)nn1)NCc1ccco1,2.94
13,O=C(c1cc(COc2c(F)cccc2F)on1)N1CCC(c2ccncc2)CC1,-9.15
14,COC(=O)Nc1sc2c(c1C(N)=O)CCC(C)C2 (centres unmarked),-3.44
15,CCN(CC(=O)Nc1c(F)cccc1F)C(=O)CCCNC(=O)c1ccc(Cl)cc1,6.47
16,CN(CC(=O)NCc1ccc2c(c1)OCO2)S(=O)(=O)c1ccc(Br)s1,7.62
17,COCC1CCN(C(=O)c2cc(COc3ccc4c(c3)CCCC4)on2)C1 (centres unmarked),12.1
18,COc1cc(/C=N/NC(=O)c2ccoc2C)cc(OC)c1O,-1.3
19,N#C/C(=C\c1cn(Cc2ccc(F)cc2)c2ccccc12)C(=O)NCc1ccco1,13.6

row,Compound,"hERG current change (%, negative = inhibition) at 1uM [%]"
1,CCn1c(SCC(=O)NC2CC2)nnc1-c1ccccc1OC,20.3
2,Nc1nnc(CC(=O)NCc2ccccc2)s1,11.8
3,COc1ccc(-c2[nH]ncc2CN2CCSCC2)c(OC)c1,7.49
4,Cc1ccc2cccc(SCC(=O)N3CCOCC3)c2n1,11.1
5,COc1ccc(C=C2C(=O)N(C)C(=O)N(C)C2=O)cc1CSc1ccccn1,-20.1
6,CCCCN(C(=O)C(C)Oc1ccc(Br)cc1)c1c(N)n(Cc2ccccc2)c(=O)[nH]c1=O (centres unmarked),16.5
7,Cc1cc(C(=S)N2CCOCC2)c(C)n1-c1ccc(Cl)cc1,0.245
8,CN(C)S(=O)(=O)n1cc(/C=C(\NC(=O)c2ccccc2Cl)C(=O)N2CCCC2)c2ccccc21,6.78
9,O=C(Nc1ccc(Cl)cc1)C1CCN(C(=O)c2ccco2)CC1,-12
10,CN1N=C(C(=O)Nc2ccc3c(c2)CCC3)CCC1=O,16.6
11,CC(=O)Nc1ccc(OCCF)cc1,11.1
12,Clc1ccc(CSc2nnc3ccccn23)c(Cl)c1,-10.1
13,CCOc1cc2c(cc1OCC)C(C(=O)O)C(c1cc(OC)c(OC)c(OC)c1)N(C)C2=O (centres unmarked),5.52
14,COCCn1c(SCC(=O)Nc2sccc2C(N)=O)nc2cc(Cl)ccc2c1=O,9.47
15,Cc1ccccc1OCc1nnc(SCc2cc(=O)[nH]c3ccccc23)n1-c1ccccc1,1.65
16,CC(Sc1nc2c(c(=O)n(C)c(=O)n2C)n1Cc1cc2c(cc1Cl)OCO2)C(=O)O (centres unmarked),22.7
17,COc1ccc(N(Cc2cc3ccccc3[nH]c2=O)S(=O)(=O)c2ccc(OC)cc2)cc1,10.1
18,O=C(c1cccc2ccccc12)N1CCN=C1SCc1ccc([N+](=O)[O-])cc1,8.57
